SMILES strings stand for the structures. Whole data set: some 110,000 compounds, median “z-score” near -0.1, cut for the highest 2% near 2. The list shows a part of the results. The source made the active and inactive calls.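 How the source made its calls: active means z-score in the third read window above 3 or below -3; inactive means the rest.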

In this assay the target is Metabotropic glutamate receptor 8 (Rattus norvegicus) (UniProt P70579). Description: mGluR8 Gi/Go-coupled signaling modulation – cell-based, rat, thallium flux, HTS, primary screen (AID 488969). The following applies: HEK293 rat mGluR8, GIRK (G protein-gated inwardly rectifying potassium channel) thallium flux, FluoZin2; at 10 µM; stronger effect = higher value; submaximal glutamate (EC20) added with thallium.
UniProt P70579, sequence (P70579 whole entry, looked up): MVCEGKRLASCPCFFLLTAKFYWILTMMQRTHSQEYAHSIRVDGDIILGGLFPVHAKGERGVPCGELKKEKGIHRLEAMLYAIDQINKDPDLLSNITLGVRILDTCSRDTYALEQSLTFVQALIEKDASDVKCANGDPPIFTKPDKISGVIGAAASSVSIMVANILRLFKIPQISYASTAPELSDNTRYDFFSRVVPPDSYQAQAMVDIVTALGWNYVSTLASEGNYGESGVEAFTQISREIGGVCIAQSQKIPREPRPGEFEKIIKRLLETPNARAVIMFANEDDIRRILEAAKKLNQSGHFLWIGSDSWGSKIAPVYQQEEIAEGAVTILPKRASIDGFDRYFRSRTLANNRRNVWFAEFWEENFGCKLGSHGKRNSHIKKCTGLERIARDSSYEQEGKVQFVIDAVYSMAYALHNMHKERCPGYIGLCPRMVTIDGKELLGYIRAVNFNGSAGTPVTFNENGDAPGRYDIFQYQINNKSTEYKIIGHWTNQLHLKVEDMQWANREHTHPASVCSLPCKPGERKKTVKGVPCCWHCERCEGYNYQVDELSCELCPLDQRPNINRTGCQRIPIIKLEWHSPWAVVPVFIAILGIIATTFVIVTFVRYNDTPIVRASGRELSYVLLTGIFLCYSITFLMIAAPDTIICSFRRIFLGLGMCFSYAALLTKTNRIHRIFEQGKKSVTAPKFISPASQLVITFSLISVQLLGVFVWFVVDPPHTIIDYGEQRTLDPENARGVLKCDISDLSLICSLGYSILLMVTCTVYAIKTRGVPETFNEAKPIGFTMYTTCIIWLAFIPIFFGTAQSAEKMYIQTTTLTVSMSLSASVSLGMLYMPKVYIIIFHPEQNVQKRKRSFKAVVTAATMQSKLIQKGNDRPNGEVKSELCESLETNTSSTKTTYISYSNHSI
With `C=C(C)Cc1c(C)nc(-c2ccccc2)[nH]c1=O`, the z-score was -0.288.

With `N=c1c2c3c(sc2ncn1CCN1CCOCC1)CCCCC3`, the z-score amounted to 1.72.

Compound `O=C(Nc1ccc(Br)cn1)C1CCCN1S(=O)(=O)c1ccccc1` (stereo not given) returned a z-score of -0.0381.

`Cc1ccccc1NC(=O)CCN1CCN(C/C=C/c2ccccc2)CC1` came in with a z-score of -0.0469.

`CCOC(=O)c1cn(CC(=O)Nc2cccc(Cl)c2C)nn1` registered a z-score of -0.294.

Compound `Cc1cc(NC(=O)C2CCN(S(=O)(=O)Cc3ccccc3)CC2)ccc1-n1cnnn1` yielded a z-score of -0.19.

In the case of `CC(C)C(=O)Nc1ccc(N2CCCC2)cc1`, the z-score is -0.815.

In turn, `O=C(N/N=C/c1cn(-c2ccccc2)nc1-c1ccc(F)cc1)c1ccc2c(c1)OCO2` displayed a z-score of 0.228.

On to `Cn1c(=O)oc2cc(S(=O)(=O)N3CCCC(C(=O)Nc4ccccn4)C3)ccc21` (stereo not given), for which the z-score is -0.21.

For the compound `COc1ccc(/C=N/NC(=O)C(=O)NCc2cccnc2)cc1OC`, the z-score is 0.161.

Consider `O=C(Nc1cc(Cl)cc(Cl)c1)c1cccc(OC(F)F)c1`, for which the z-score is -0.396.

As to `Cc1ccccc1OCCSc1nnc(-c2ccncc2)n1C`, the z-score is -0.096.

`Cc1cc(=O)[nH]c(SCC(=O)Nc2nc(-c3ccccc3)cs2)n1` registered a z-score of -1.18.

In turn, `COc1ccc(NC(=O)CSc2ccccc2)cc1S(=O)(=O)N1CCCCC1` showed a z-score of -0.233.

Compound `N#CCCn1[nH]c(-c2ccccc2)cc1=O` had a z-score of -0.183.

`CC1(C)C(O)=C(c2nc3ccccc3[nH]2)C(=N)N1c1ccccc1` showed a z-score of -0.0993.

On to `CC(=O)Nc1sc(C)c(C)c1C(=O)OCC(=O)N(C)C1CCS(=O)(=O)C1` (stereo not given), for which the z-score turned out to be 0.0245.

In turn, `COc1ccc(C(=O)NC(Cc2ccccc2)c2ccc3c(c2)OCCCO3)cc1` (stereo not given) came in with a z-score of -0.19.

As for `CC(=O)NNC(=O)CC(=O)Nc1nc(C23CC4CC(CC(C4)C2)C3)cs1`, the z-score was -0.221.

`O=C(c1ccc(N2CCCCC2)c([N+](=O)[O-])c1)N(Cc1ccccc1)c1ccccn1` came in with a z-score of -0.364.

For the compound `COc1cccc(N2CC(C(=O)Nc3nnc(SCC(=O)c4ccccc4)s3)CC2=O)c1` (stereo not given), the z-score was found to be 0.128.

As to `Cc1ccc(N(Cc2ccc(C(=O)Nc3ccccc3C(=O)NCc3ccco3)cc2)S(C)(=O)=O)cc1C`, the z-score is -0.321.

With `CC(=O)Oc1ccc(Oc2ccc(-c3noc(C)n3)cc2)cc1`, the z-score is -0.184.

`COc1ccc(CNC(=O)C2CC(c3ccccc3[N+](=O)[O-])=NO2)cc1` (stereo not given) displayed a z-score of -0.076.

Turning to `CCC(=O)Nc1ccc2nc(C3CC3)n(Cc3ccccc3)c(=O)c2c1`, the z-score came out at 0.23.

On to `CC(=O)c1cccc(NS(=O)(=O)c2cc(OCC(N)=O)c(C)cc2Cl)c1`, for which the z-score is -0.271.

On to `Nc1cc(N)nc(SCC(=O)N2CCN(C(=O)c3ccco3)CC2)n1`, for which the z-score was -0.174.

In turn, `Nc1nc(SCc2ccc([N+](=O)[O-])cc2)c2ncn(C3OC(CO)C(O)C3O)c2n1` (stereo not given) showed a z-score of 2.28.

Take `CC(=O)/C(C(=N)N1CCN(c2cccc(Cl)c2)CC1)=C(\C)O`: the z-score was -0.0545.

`Cc1ccccc1C(=O)N/N=C/c1ccc([N+](=O)[O-])s1` registered a z-score of 2.95.

The compound `O=C(c1ccco1)c1cn(CC(=O)N2CCCc3ccccc32)c2ccccc12` yielded a z-score of -0.386.

`CC(=O)c1cc2c(cc1NC(=O)Nc1cccc(Cl)c1)OCCO2` displayed a z-score of -1.57.

In the case of `CC(C)CCN1C(=O)CCC1(C)C(=O)NC1CCCCCC1` (stereo not given), the z-score is -0.212.

In turn, `OCCN(CCO)CC(O)COc1ccc2c(c1)OCO2` (stereo not given) displayed a z-score of 1.26.

As to `CCOC(=O)C1=C(C)OC(N)=C(C#N)C1c1c(C)nn(-c2ccc(C)cc2)c1Cl` (stereo not given), the z-score was -1.07.

As to `Cc1ccc(-c2nnn(CC(=O)N(CCO)C(C(=O)NC(C)(C)C)c3ccncc3)n2)cc1` (stereo not given), the z-score was determined as 0.15.

`CCN(CC(=O)NCCc1ccccc1)S(=O)(=O)c1ccc(C)cc1` returned a z-score of -0.528.

In turn, `Cc1nnc(NC(=O)CCSc2ccccc2)s1` showed a z-score of 2.67.

`c1ccc(SCc2nc3ccccc3[nH]2)cc1` came in with a z-score of -0.0589.

In turn, `COc1ccc(C2=NOC3(CC(=O)N(c4ccc(F)cc4)C3=O)C2)c(OC)c1` (stereo not given) came in with a z-score of 1.54.

`NC(=O)CN1CCOCCOCCN(CC(N)=O)CCOCC1` yielded a z-score of -0.21.

With `O=C1CCC(=O)N1c1nc2nc(-c3ccccc3)cc(=O)n2[nH]1`, the z-score was -0.309.

`Cc1nc(-c2ccc(NS(C)(=O)=O)cc2)cs1` displayed a z-score of -0.203.

In turn, `CCOc1ccc(NC(=O)Cn2nc(-c3ccccc3Cl)n(CC)c2=S)cc1` came in with a z-score of -0.441.

In turn, `CC(=O)Nc1ccc2nc(-c3ccncc3)[nH]c2c1` registered a z-score of -0.0987.

In turn, `Cc1ccc(S(=O)(=O)NC(C)C(=O)Nc2ccccc2C(=O)N2CCCC2)cc1` (stereo not given) displayed a z-score of -1.26.

In turn, `CC1(C)CC(N(Cc2cccs2)C(=O)c2ccco2)CCO1` (stereo not given) yielded a z-score of -0.0734.

`O=C(CN1CCN(c2ncccn2)CC1)N(Cc1ccccc1)c1ccc(F)cc1` returned a z-score of -1.45.

`N#Cc1nc(COc2ccccc2)oc1N1CCCCCC1`: the z-score was -0.881.

Compound `COCc1cc(=O)[nH]c(Nc2nc(C)c3cc(OC)ccc3n2)n1` yielded a z-score of -0.401.

Compound `CN(C)c1cccc(C(=O)OCC(=O)NCC2CCCO2)c1` (stereo not given) came in with a z-score of -0.266.

`Cc1ccc2nc(/C(C#N)=C/c3cn[nH]c3-c3ccc(F)cc3)[nH]c2c1`: the z-score came out at 0.00106.

`CCC1C(=O)N=C(SCC(=O)Nc2cccc3ccccc23)NC1=O` (stereo not given): the z-score is 0.296.

`COC(=O)c1ccc(-n2nc(C(F)(F)F)c3c2-c2ccoc2CC3)cc1` had a z-score of -0.167.

As for `O=C(CN(c1ccc(Cl)cc1)S(=O)(=O)c1ccccc1)N1CCN(c2ccccc2)CC1`, the z-score is -0.37.

As for `Cc1cc(C)nc(SCC(=O)c2c(N)n(C)c(=O)n(C)c2=O)n1`, the z-score was -0.282.

With `COc1ccccc1NC(=O)N1c2ccc(F)cc2CCC1C` (stereo not given), the z-score is 1.43.

Compound `CCN(CC)CC(=O)Nc1ccc2c(c1)Nc1ccccc1CC2` showed a z-score of 2.49.

The compound `Cc1cc(=O)n(C(NC(=O)c2ccccc2)C(=O)c2ccccc2)cn1` (stereo not given) showed a z-score of -0.888.

`Cc1cc(=O)[nH]c(SCC(=O)O)c1C#N` had a z-score of -0.0372.

Take `CC1(C)CC(=O)CC(C)(C)N1OC(=O)c1ccncc1`: the z-score stood at 0.285.

The compound `O=C(O)c1ccc(N=NN2CCCCCC2)cc1` came in with a z-score of -0.183.

With `COC(=O)N1N=C(c2ccccc2)CC1(O)C(F)(F)F` (stereo not given), the z-score is -0.0474.

`O=C(Nc1c(Cl)cccc1Cl)c1ccc(-c2ccccc2)cc1`: the z-score is -0.141.

The compound `CCN1/C(=C2\OC(=S)N(C)C2=O)Sc2ccccc21` registered a z-score of 0.0145.

As for `O=[N+]([O-])c1ccccc1/C=N/Nc1nccnc1Cl`, the z-score worked out at 0.0122.

The compound `C=CCNC(=O)C1CC=CCC1C(=O)O` (stereo not given) registered a z-score of 0.472.

`Cn1c(=O)n(-c2ccc(Cl)cc2)c(=O)c2c3c(sc21)COC(C)(C)C3` came in with a z-score of -0.582.

`CCOC(=O)c1ccccc1NC(=O)c1cn(-c2ccc(C)c(C)c2)c(=O)c2ccccc12` displayed a z-score of -0.151.

`O=c1oc2c(CN3CCCCC3)c(O)ccc2c2c1CCCC2`: the z-score is -0.148.

As to `Cn1c(SCc2ccccc2Cl)nc(C(F)(F)F)cc1=O`, the z-score is -0.0528.

Turning to `CCCCNc1cc(C)oc(=O)c1C(C)=O`, the z-score was 0.297.

For the compound `Cc1cc(C)cc(NC(=O)COc2ccc3c(C)c(Cc4ccccc4)c(=O)oc3c2)c1`, the z-score is -0.277.

The compound `CCc1ccc(CN2CCN(C(=O)c3cccc(OC)c3OC)CC2)cc1` yielded a z-score of -0.484.

`CC1(C)c2ssc(=S)c2-c2ccccc2N1C(=O)CSC1=NCCS1` came in with a z-score of -0.279.

For the compound `Cc1cccc(NC(=O)c2cc(Cl)sc2Cl)c1C`, the z-score worked out at 0.0762.

`O=C(c1ccccc1-c1ccccc1)N1CCCC1` came in with a z-score of -0.25.

The compound `CCOC(=O)/C=C(/C)N1N=C(c2ccc(OC)cc2)CC1c1cccc([N+](=O)[O-])c1` (stereo not given) had a z-score of 0.0194.

Regarding `COc1cc(/C=N/NC(=O)c2ccncc2)ccc1OC(=O)c1ccc([N+](=O)[O-])cc1`, the z-score was -0.108.

In turn, `O=C(Nc1ccc(/C=C/c2nc3ccccc3o2)cc1)c1ccc(F)cc1` came in with a z-score of -0.316.

In turn, `O=C(c1ccc2nc(N3CCOCC3)sc2c1)N1CCN(C(=O)c2ccco2)CC1` came in with a z-score of -0.0384.

In turn, `Cc1ccc(CNC(=O)C2CCCN(S(=O)(=O)c3cccnc3)C2)cc1` (stereo not given) registered a z-score of -0.223.

As to `CCOC(=O)c1[nH]c(=O)[nH]c1COC(=O)c1cc2ccccc2o1`, the z-score was -0.246.

Compound `CN1CCN(S(=O)(=O)c2ccc(NC(=O)c3cccc(S(=O)(=O)N4CCCC4)c3)cc2)CC1` returned a z-score of 0.169.

On to `Clc1cc(Br)ccc1OCCOCCN1CCOCC1`, for which the z-score was -1.2.

Compound `O=C(Nn1c(-c2ccc(Br)cc2)nc2ccccc2c1=O)c1ccc([N+](=O)[O-])cc1` yielded a z-score of 0.087.

Take `Cc1ccc(S(=O)(=O)NCC(=O)N2CCCC2)cc1`: the z-score was -0.217.

In turn, `Cc1ccnc(N2CCC(C(=O)NNC(=O)COc3cccc4ccccc34)CC2)n1` gave a z-score of 0.336.

The compound `C=CCc1ccc(OCC(O)CN2CCCCC2)c(OC)c1` (stereo not given) came in with a z-score of 0.317.

As to `O=C(NNC1=C(C(=O)C(F)(F)F)CCC1)c1cccc(Cl)c1`, the z-score was found to be 0.3.

Regarding `Cc1ccc(OCC(=O)N/N=C/c2ccc([N+](=O)[O-])o2)cc1`, the z-score is 0.0523.

Regarding `Cc1ccc(N2C(=O)S/C(=C/c3cn(C)c4ccccc34)C2=O)cc1`, the z-score came to 1.03.

`CCc1cc2c(NCCC(=O)O)ncnc2s1` showed a z-score of -1.23.

On to `COc1ccc(/C=N/NC(N)=S)cc1OC(=O)c1cccc2ccccc12`, for which the z-score was -0.237.

`Cc1ccc(S(=O)(=O)N(C)CC(=O)N2CCCc3ccccc32)cc1`: the z-score is -0.119.

Regarding `Cc1cc(C)n2nc(CC(=O)NCc3ccccc3Cl)nc2n1`, the z-score is 0.17.

Regarding `COc1ccccc1CNC(=O)c1ccc(S(=O)(=O)N(C)C)cc1`, the z-score worked out at 0.206.

`O=C1O/C(=C\c2ccccc2)c2ccccc21` displayed a z-score of 0.00856.

Compound `CC1(C)CC(=O)C=C(NCc2ccc(Cl)c(Cl)c2)C1` gave a z-score of -0.131.

For the compound `Cc1ccc(-c2cc(C(=O)N3CCN(c4ccc(F)cc4)CC3)c3ccccc3n2)o1`, the z-score was -0.216.

As to `CCC(=O)Nc1cc2nn(-c3ccccc3)nc2cc1Cl`, the z-score came out at 0.0874.

`CCCCN1C(=O)NC2NC(=O)NC21` (stereo not given) yielded a z-score of -0.0294.

In turn, `COc1cc(OC)cc(C(=O)Nc2ccc(S(=O)(=O)Nc3cc(C)nc(C)n3)cc2)c1` came in with a z-score of -0.251.

`O=C(NC(=S)NNS(=O)(=O)c1ccccc1)c1ccccc1[N+](=O)[O-]`: the z-score is -0.154.

As for `O=C1c2ccccc2C(=O)C12OC(c1ccccc1)C1(C(=O)c3ccccc3C1=O)C2c1cccc([N+](=O)[O-])c1` (stereo not given), the z-score was -0.381.

In turn, `CCOC(=O)c1sc(NC(=O)c2noc3c2CCCC3)c(C(=O)OCC)c1C` gave a z-score of 0.444.

In turn, `CC(C)c1ccccc1OCC(=O)NC1CCCc2ccccc21` (stereo not given) had a z-score of -0.323.

`CC(C)Oc1ccc(CC2CC(=O)NC2=O)cc1` (stereo not given) registered a z-score of -0.119.

Take `c1ccc2c(N3CCCCCC3)nc(-c3ccncc3)nc2c1`: the z-score is active: -4.67.

Compound `CCN(CC)C(=O)C1CCCN(C/C(C)=C/c2ccccc2)C1` (stereo not given) displayed a z-score of -0.226.

These data come from PubChem BioAssay AID488969 (Vanderbilt High Throughput Screening Facility, 2010).
